31 molecules from publication PMC9911399, “Two distinct binding modes provide the RNA-binding protein RbFox with extraordinary sequence specificity” can be followed below.

Numbering of substitutions follows the chain as printed; changes in the protein carry UniProt numbers. This is one part of the list.

To fix the notation:
T1: RBFOX1 RRM RbFoxmut (Fox-RRM*) (Homo sapiens, UniProt Q9NWB1 109-208, R118D;E147R;N151S;E152T)
T1 sequence: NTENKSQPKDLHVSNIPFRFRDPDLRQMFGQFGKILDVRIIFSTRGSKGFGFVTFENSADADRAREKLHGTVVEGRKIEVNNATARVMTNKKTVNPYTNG

B1: GAUAUGG (DNA:RNA)
RNA: GGGAGACCGGAAUUCAGAUUGUCCGAUAUGGUUAAAUCCCGUCGUAGCCACCA
DNA 1: CAATCTGAATTCCGGTCTCCC
DNA 2: TGGTGGCTACGACGGGATT
B2: GGAUCCA (DNA:RNA)
RNA: B1 RNA with A26G, U27A, A28U, U29C, G30C, G31A
DNA 1: CAATCTGAATTCCGGTCTCCC
DNA 2: TGGTGGCTACGACGGGATT
B3: CCUUAGU (DNA:RNA)
RNA: B1 RNA with G25C, A26C, A28U, U29A, G31U
DNA 1: CAATCTGAATTCCGGTCTCCC
DNA 2: TGGTGGCTACGACGGGATT
B4: AAUCGUC (DNA:RNA)
RNA: B1 RNA with G25A, A28C, U29G, G30U, G31C
DNA 1: CAATCTGAATTCCGGTCTCCC
DNA 2: TGGTGGCTACGACGGGATT
B5: CCACGGU (DNA:RNA)
RNA: B1 RNA with G25C, A26C, U27A, A28C, U29G, G31U
DNA 1: CAATCTGAATTCCGGTCTCCC
DNA 2: TGGTGGCTACGACGGGATT
B6: UAGGCUU (DNA:RNA)
RNA: B1 RNA with G25U, U27G, A28G, U29C, G30U, G31U
DNA 1: CAATCTGAATTCCGGTCTCCC
DNA 2: TGGTGGCTACGACGGGATT
B7: CGGAGCA (DNA:RNA)
RNA: B1 RNA with G25C, A26G, U27G, U29G, G30C, G31A
DNA 1: CAATCTGAATTCCGGTCTCCC
DNA 2: TGGTGGCTACGACGGGATT
B8: AGCGGUG (DNA:RNA)
RNA: B1 RNA with G25A, A26G, U27C, A28G, U29G, G30U
DNA 1: CAATCTGAATTCCGGTCTCCC
DNA 2: TGGTGGCTACGACGGGATT
B9: GGGAAAA (DNA:RNA)
RNA: B1 RNA with A26G, U27G, U29A, G30A, G31A
DNA 1: CAATCTGAATTCCGGTCTCCC
DNA 2: TGGTGGCTACGACGGGATT
B10: ACGAUCA (DNA:RNA)
RNA: B1 RNA with G25A, A26C, U27G, G30C, G31A
DNA 1: CAATCTGAATTCCGGTCTCCC
DNA 2: TGGTGGCTACGACGGGATT
B11: CCCAGCA (DNA:RNA)
RNA: B1 RNA with G25C, A26C, U27C, U29G, G30C, G31A
DNA 1: CAATCTGAATTCCGGTCTCCC
DNA 2: TGGTGGCTACGACGGGATT
B12: UAAGGAG (DNA:RNA)
RNA: B1 RNA with G25U, U27A, A28G, U29G, G30A
DNA 1: CAATCTGAATTCCGGTCTCCC
DNA 2: TGGTGGCTACGACGGGATT
B13: UAAAAUC (DNA:RNA)
RNA: B1 RNA with G25U, U27A, U29A, G30U, G31C
DNA 1: CAATCTGAATTCCGGTCTCCC
DNA 2: TGGTGGCTACGACGGGATT
B14: GCGAAGU (DNA:RNA)
RNA: B1 RNA with A26C, U27G, U29A, G31U
DNA 1: CAATCTGAATTCCGGTCTCCC
DNA 2: TGGTGGCTACGACGGGATT
B15: AGAGUCU (DNA:RNA)
RNA: B1 RNA with G25A, A26G, U27A, A28G, G30C, G31U
DNA 1: CAATCTGAATTCCGGTCTCCC
DNA 2: TGGTGGCTACGACGGGATT
B16: UAAGAGG (DNA:RNA)
RNA: B1 RNA with G25U, U27A, A28G, U29A
DNA 1: CAATCTGAATTCCGGTCTCCC
DNA 2: TGGTGGCTACGACGGGATT
B17: CACGGGG (DNA:RNA)
RNA: B1 RNA with G25C, U27C, A28G, U29G
DNA 1: CAATCTGAATTCCGGTCTCCC
DNA 2: TGGTGGCTACGACGGGATT
B18: CCUUACA (DNA:RNA)
RNA: B1 RNA with G25C, A26C, A28U, U29A, G30C, G31A
DNA 1: CAATCTGAATTCCGGTCTCCC
DNA 2: TGGTGGCTACGACGGGATT
B19: UUCUGCC (DNA:RNA)
RNA: GGGAGACCGGAAUUCAGAUUGUCCUUCUGCCUUAAAUCCCGUCGUAGCCACCA
DNA 1: CAATCTGAATTCCGGTCTCCC
DNA 2: TGGTGGCTACGACGGGATT
B20: UAUGGUU (DNA:RNA)
RNA: B1 RNA with G25U, A28G, U29G, G30U, G31U
DNA 1: CAATCTGAATTCCGGTCTCCC
DNA 2: TGGTGGCTACGACGGGATT
B21: CAGAACA (DNA:RNA)
RNA: B1 RNA with G25C, U27G, U29A, G30C, G31A
DNA 1: CAATCTGAATTCCGGTCTCCC
DNA 2: TGGTGGCTACGACGGGATT
B22: UGUGGCA (DNA:RNA)
RNA: B19 RNA with U26G, C27U, U28G, C31A
DNA 1: CAATCTGAATTCCGGTCTCCC
DNA 2: TGGTGGCTACGACGGGATT
B23: GGCUGCA (DNA:RNA)
RNA: B19 RNA with U25G, U26G, C31A
DNA 1: CAATCTGAATTCCGGTCTCCC
DNA 2: TGGTGGCTACGACGGGATT
B24: AUAAGAG (DNA:RNA)
RNA: B1 RNA with G25A, A26U, U27A, U29G, G30A
DNA 1: CAATCTGAATTCCGGTCTCCC
DNA 2: TGGTGGCTACGACGGGATT
B25: GCCUUCU (DNA:RNA)
RNA: B19 RNA with U25G, U26C, G29U, C31U
DNA 1: CAATCTGAATTCCGGTCTCCC
DNA 2: TGGTGGCTACGACGGGATT
B26: UCAAUCU (DNA:RNA)
RNA: B1 RNA with G25U, A26C, U27A, G30C, G31U
DNA 1: CAATCTGAATTCCGGTCTCCC
DNA 2: TGGTGGCTACGACGGGATT
B27: AUACGGA (DNA:RNA)
RNA: B19 RNA with U25A, C27A, U28C, C30G, C31A
DNA 1: CAATCTGAATTCCGGTCTCCC
DNA 2: TGGTGGCTACGACGGGATT
B28: AUCCGUC (DNA:RNA)
RNA: B19 RNA with U25A, U28C, C30U
DNA 1: CAATCTGAATTCCGGTCTCCC
DNA 2: TGGTGGCTACGACGGGATT
B29: GUCAAGA (DNA:RNA)
RNA: B1 RNA with A26U, U27C, U29A, G31A
DNA 1: CAATCTGAATTCCGGTCTCCC
DNA 2: TGGTGGCTACGACGGGATT
B30: AGACUCG (DNA:RNA)
RNA: B1 RNA with G25A, A26G, U27A, A28C, G30C
DNA 1: CAATCTGAATTCCGGTCTCCC
DNA 2: TGGTGGCTACGACGGGATT
B31: UGUAAGU (DNA:RNA)
RNA: B1 RNA with G25U, A26G, U29A, G31U
DNA 1: CAATCTGAATTCCGGTCTCCC
DNA 2: TGGTGGCTACGACGGGATT

This assay has as its target T1, RBFOX1 RRM RbFoxmut (Fox-RRM*). As to the kind of experiment: EMSA; HiTS-Eq, 1 nM pool, 10 min; buffer printed only for the single-RNA assays: 10 mM Tris pH 7.5, 150 mM NaCl, 3.4 mM EDTA, 0.001% NP-40, 30 C. The conditions noted are these: tags: His6 N-terminal (pET28a); label: 5' 32P. The method, boiled down: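 Purified RbFox RRM, wild type or mutant, was incubated for 10 min in 50 µL with 1 nM of a 5′-radiolabelled RNA pool carrying 7 randomized nucleotides, whose flanks were annealed to DNA oligonucleotides, over a series of increasing protein concentrations. Unbound RNA was resolved on 8% native PAGE, cut out, reverse-transcribed, barcoded by PCR and sequenced on an Illumina HiSeq 2500. Relative association constants were derived from changes in read counts for each RNA species versus the control reaction and normalised to the cognate motif.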
On the technique in general: In EMSA bound probe runs differently from free probe, usually more slowly.
Turning to B1, the binding signal was 0.115 KA relative to UGCAUGU. Regarding B2, the binding signal is 0.147 KA relative to UGCAUGU. With B3, the binding signal is 0.124 KA relative to UGCAUGU. Next, B4: 0.0729 KA relative to UGCAUGU; B5: 0.115 KA relative to UGCAUGU.

B6: the binding signal is 0.0783 KA relative to UGCAUGU.

Consider B7, for which the binding signal was 0.12 KA relative to UGCAUGU. As to B8, the binding signal was 0.144 KA relative to UGCAUGU.

B9: the binding signal was 0.0576 KA relative to UGCAUGU. With B10, the binding signal was 0.063 KA relative to UGCAUGU. In the case of B11, the binding signal is 0.106 KA relative to UGCAUGU. Next, B12: 0.11 KA relative to UGCAUGU; B13: 0.0436 KA relative to UGCAUGU; B14: 0.0897 KA relative to UGCAUGU. Next, B15: 0.0632 KA relative to UGCAUGU; B16: 0.0727 KA relative to UGCAUGU; B17: 0.0614 KA relative to UGCAUGU. Take B18: the binding signal is 0.132 KA relative to UGCAUGU. Regarding B19, the binding signal is 0.226 KA relative to UGCAUGU. The value for B20 was 0.0969 KA relative to UGCAUGU; that for B21 was 0.0481 KA relative to UGCAUGU.

As to B22, the binding signal is 0.136 KA relative to UGCAUGU. With B23, the binding signal is 0.203 KA relative to UGCAUGU.

Turning to B24, the binding signal is 0.139 KA relative to UGCAUGU.

B25: the binding signal was 0.162 KA relative to UGCAUGU.

As to B26, the binding signal is 0.0493 KA relative to UGCAUGU. For B27, the binding signal is 0.0609 KA relative to UGCAUGU. For the molecule B28, the binding signal was 0.106 KA relative to UGCAUGU.

Take B29: the binding signal was 0.0794 KA relative to UGCAUGU. With B30, the binding signal was 0.0985 KA relative to UGCAUGU.

B31: the binding signal was 0.118 KA relative to UGCAUGU.
